From patent publication US20060088522A1, “Humanized anti-5T4 antibodies and anti-5T4/calicheamicin conjugates” (Wyeth, priority 2004, published 2006)

T1: human 5T4 antigen (Homo sapiens, UniProt Q13641)
T1 sequence (Q13641 32-420): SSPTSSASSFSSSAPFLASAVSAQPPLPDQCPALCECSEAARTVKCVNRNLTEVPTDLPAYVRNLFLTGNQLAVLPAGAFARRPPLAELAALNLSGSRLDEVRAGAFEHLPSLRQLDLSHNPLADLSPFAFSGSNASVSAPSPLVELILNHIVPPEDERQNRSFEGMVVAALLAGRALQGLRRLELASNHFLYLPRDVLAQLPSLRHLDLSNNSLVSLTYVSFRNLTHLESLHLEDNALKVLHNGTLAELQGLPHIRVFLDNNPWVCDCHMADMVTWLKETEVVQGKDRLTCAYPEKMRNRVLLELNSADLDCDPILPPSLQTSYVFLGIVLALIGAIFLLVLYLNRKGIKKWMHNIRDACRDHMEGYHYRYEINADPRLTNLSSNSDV


Molecular target: T1, human 5T4 antigen
Assay: BIACORE analysis (surface plasmon resonance), 5T4 immobilized on CM5 chip
Type: binding
Description: To assess the binding specificity and affinity of chimeric and humanized H8 antibodies, BIACORE® analysis was performed using human 5T4 antigen immobilized on a CM5 chip. BIACORE® technology utilizes changes in the refractive index at the surface layer upon binding of the antibody to the 5T4 antigen immobilized on the layer. Binding is detected by surface plasmon resonance (SPR) of laser light refracting from the surface. Analysis of the signal kinetics on rate and off rate allows the discrimination between non-specific and specific interaction. The concentration of antibody used was in the range of 12.5 nM to 200 nM. Chimeric, semi-humanized, and humanized H8 antibodies performed similarly to the murine H8 antibody in the BIACORE® assay.
The binding kinetics of murine H8, humanized H8, and humanized H8 calicheamicin conjugate were compared by plasmon resonance, essentially as described in Example 2. The conjugate sample contained 61 μg CalichDMH per mg protein, 1% free antibody, and 1.4% aggregate.

| Molecule | kd (Table 10, off rate) [s⁻¹] | ka (Table 10, on rate) [M⁻¹ s⁻¹] | kd (Table 8, off rate) [s⁻¹] | ka (Table 8, on rate) [M⁻¹ s⁻¹] |
| --- | --- | --- | --- | --- |
| Humanized H8 version 2/CM: humanized H8 version 2/calicheamicin (CM) conjugate as headed in Table 10 (conjugate) heavy: QVQLVQSGAEVKKPGASVKVSCKASGYSFTGYYMHWVRQAPGQGLEWMGRINPNNGVTLYNQKFKDRVTMTRDTSISTAYMELSRLRSDDTAVYYCARSTMITNYVMDYWGQGTLVTVSSASTKGPSVFPLAPCSRSTSESTAALGCLVKDYFPEPVTVSWNSGALTSGVHTFPAVLQSSGLYSLSSVVTVPSSSLGTKTYTCNVDHKPSNTKVDKRV[human IgG4 Fc with S228P (EU numbers) not written out] light: DIVMTQSPDSLAVSLGERATINCKASQSVSNDVAWYQQKPGQPPKLLIYYTSSRYAGVPDRFSGSGSGTDFTLTISSLQAEDVAVYYCQQDYNSPPTFGGGTKLEIKRTVAAPSVFIFPPSDEQLKSGTASVVCLLNNFYPREAKVQWKVDNALQSGNSQESVTEQDSKDSTYSLSSTLTLSKADYEKHKVYACEVTHQGLSSPVTKSFNRGEC | 2e-05 | 120000 | – | – |
| Humanized H8 version 2/AcBut/CalichDMH: humanized H8 version 2 conjugated to calicheamicin via AcBut (conjugate) heavy: QVQLVQSGAEVKKPGASVKVSCKASGYSFTGYYMHWVRQAPGQGLEWMGRINPNNGVTLYNQKFKDRVTMTRDTSISTAYMELSRLRSDDTAVYYCARSTMITNYVMDYWGQGTLVTVSSASTKGPSVFPLAPCSRSTSESTAALGCLVKDYFPEPVTVSWNSGALTSGVHTFPAVLQSSGLYSLSSVVTVPSSSLGTKTYTCNVDHKPSNTKVDKRV[human IgG4 Fc with S228P (EU numbers) not written out] light: DIVMTQSPDSLAVSLGERATINCKASQSVSNDVAWYQQKPGQPPKLLIYYTSSRYAGVPDRFSGSGSGTDFTLTISSLQAEDVAVYYCQQDYNSPPTFGGGTKLEIKRTVAAPSVFIFPPSDEQLKSGTASVVCLLNNFYPREAKVQWKVDNALQSGNSQESVTEQDSKDSTYSLSSTLTLSKADYEKHKVYACEVTHQGLSSPVTKSFNRGEC | 3.4e-05 | 130000 | – | – |
| Humanized H8 version 2: humanized H8 heavy chain variable region version 2 and light chain variable region version 2 (antibody) heavy: QVQLVQSGAEVKKPGASVKVSCKASGYSFTGYYMHWVRQAPGQGLEWMGRINPNNGVTLYNQKFKDRVTMTRDTSISTAYMELSRLRSDDTAVYYCARSTMITNYVMDYWGQGTLVTVSSASTKGPSVFPLAPCSRSTSESTAALGCLVKDYFPEPVTVSWNSGALTSGVHTFPAVLQSSGLYSLSSVVTVPSSSLGTKTYTCNVDHKPSNTKVDKRV[human IgG4 Fc with S228P (EU numbers) not written out] light: DIVMTQSPDSLAVSLGERATINCKASQSVSNDVAWYQQKPGQPPKLLIYYTSSRYAGVPDRFSGSGSGTDFTLTISSLQAEDVAVYYCQQDYNSPPTFGGGTKLEIKRTVAAPSVFIFPPSDEQLKSGTASVVCLLNNFYPREAKVQWKVDNALQSGNSQESVTEQDSKDSTYSLSSTLTLSKADYEKHKVYACEVTHQGLSSPVTKSFNRGEC | – | – | 1.3e-05 | 110000 |
| Humanized H8 version 3: humanized H8 heavy chain variable region version 3 and light chain variable region version 2 (antibody) heavy: QVQLVQSGAEVKKPGASVKVSCKASGYSFTGYYMHWVRQAPGQGLEWMGRINPNNGVTLYNQKFKDRVTITRDTSTSTAYMELSSLRSEDTAVYYCARSTMITNYVMDYWGQGTLVTVSSASTKGPSVFPLAPCSRSTSESTAALGCLVKDYFPEPVTVSWNSGALTSGVHTFPAVLQSSGLYSLSSVVTVPSSSLGTKTYTCNVDHKPSNTKVDKRV[human IgG4 Fc with S228P (EU numbers) not written out] light: DIVMTQSPDSLAVSLGERATINCKASQSVSNDVAWYQQKPGQPPKLLIYYTSSRYAGVPDRFSGSGSGTDFTLTISSLQAEDVAVYYCQQDYNSPPTFGGGTKLEIKRTVAAPSVFIFPPSDEQLKSGTASVVCLLNNFYPREAKVQWKVDNALQSGNSQESVTEQDSKDSTYSLSSTLTLSKADYEKHKVYACEVTHQGLSSPVTKSFNRGEC | – | – | 1.9e-05 | 150000 |
